Assay results as given in the supplement of paper PMC11417369.
Some of the results follow.

tested on: PfHDP1 homeodomain (GST-tagged); experiment: gcPBM binding intensity (ln(normalized median fluorescence intensity)); higher = stronger DNA binding
Outline: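 GST-fused DNA-binding domains of P. falciparum, expressed in E. coli, were applied at about 25 μg on average for 1 h to an Agilent 4 × 180k array of primer-extended double-stranded 36-bp intergenic genomic probes and negative controls. Binding intensity is the highest Masliner-normalised natural-log median intensity across replicate spots of either probe orientation, measured with Alexa488 anti-GST antibody and a 488 nm scan.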

Sequence	gcPBM binding intensity (ln)
TAATTTTTTTTAAATACACACTGAAATGTGAATTTT [CACACA_site4476]	6.17
TATTTTATAATAGGCACACATATAAAAATATATATA [CACACA_site4127]	6.57
TAATAAAGTATTTTGCGTACTTATTTTATTCTTCTA [XGTACX_site2095]	6.12
TGGCATATATATAAATGTACTTTCTTTCTATCTGTT [XGTACX_site8483]	6.36
ATTGTGTGAACAAAATGTACATTTTCTCTACATTAA [XGTACX_site1333]	6.49
TTTAAAATATTTTCTTGTACGAAGGAACATTTCTTA [XGTACX_site4013]	6.41
AAATACTATATCAAGCGTACTTATTTCATGGTAATA [XGTACX_site7878]	6.24
GTGCCTTTAAAAAAAAGTACAAAAAAGAACGAATTA [XGTACX_site3714]	6.66
AAAAAAAAAAAAAGCACACACACATATGAGTATATA [CACACA_site4682]	6.82
TATATATATATATATTGTACATTTTTTTTTTTTTTT [XGTACX_site7891]	9.21
TATGTAAAGAGTAAGGGTACATGTATAATACGGCTC [XGTACX_site1283]	7.3
TTTTCATTAAATATATATGCATACCATATGTACATT [GTGCAC_negctrl_site539]	6.96
ATAATAAATAAAATAACACACATATATAGATATATA [CACACA_site6224]	6.39
TATATTCTTATTATTGCATGCTGCACGAAGATTTTC [TGCATGCA_site831]	7.5
TTTATATAAAAAAATTGTACATATTTATTATAAACA [XGTACX_site2124]	6.22
TGTATGCATATTTGATGTACGCACATATACTAATTT [XGTACX_site3159]	7.17
TTTAATTATAAGATAACACACAAAAAAAATAAAATA [CACACA_site254]	6.93
GTATGTTTGTTATGCACACAAATGCATCTTATTTCC [CACACA_site2690]	10.8
TATTTAATTACATGAACACACATTATGTATTTTTAA [CACACA_site2962]	6.33

Sequence	gcPBM binding intensity (ln)
TTTTTATTTAATAATATATTAATCATATAAATAAAT [GTGCAC_negctrl_site210]	6.07
TAAAAAAAAAAAACAAGTACATATATAAATATATAT [XGTACX_site7537]	6.07
CAAGAATAAAAATACAAGCACACATGTATGAAATAT [CACACA_site3214]	6.74
AAACCGAATTTACATGAATGTAAATTATGTTGTTTT [CACACA_negctrl_site1834]	5.88
ACATAAAATAAATATACACACATATGTATTTATTAT [CACACA_site5648]	6.69
ATTTCTCTATAGTAATGTACAAAAAAAAGGAAAAAG [XGTACX_site2757]	6.49
TTATGGATAAATAAATGTACGTTAAGATAACACAAA [XGTACX_site4208]	6.24
ATATACATATGTGTGTGTACTTATATCACATTTTTG [XGTACX_site3785]	6.56
GTTTTTTTGTTTTAGTGTACCTAAAACTGCATGTAG [XGTACX_site294]	7.23
TCGACAAAGGCATATACACACATTTGTAACATAAAT [CACACA_site4471]	6.33
TGGATAATCAAAAATTGTACAAGTGTTGTTATTGGT [XGTACX_site8010]	6.76
ACCGGTGGAACGTTTTGTACATATATAATAATATAT [XGTACX_site2143]	6.62
ATATATATATTGAAAAGTACATATATATATATATTA [XGTACX_site1560]	8.15
AAAAGAAATAAGGATACACACTATTGATAAAAGTAG [CACACA_site4309]	6.59
TATTACAAATAATACCGTACACAAATGTTTTTTTAT [XGTACX_site7977]	6.37
TCGTGGGAAAATATTACACACATTTACTATAGTATC [CACACA_site5836]	6.43
CTTGGGAAGTATTCAGTGCAAAATATAAGCAGGTCA [GTGCAC_site9758]	10.2
CATATTCCCCCCCACACACACACACGCATACATACC [CACACA_site7148]	9.16
ATATAAAAAATATAAGGTACACATATATGTAGATAT [XGTACX_site6792]	6.97

Sequence	gcPBM binding intensity (ln)
TAAATAAAATACAAATGTACATAAATAATAAATATA [XGTACX_site1813]	6.43
AATTATTTTAAATATTGTACTATTACAGAATGGTGT [XGTACX_site5693]	6.65
TATATATTAATCAAAGTGCAATAATAAAATAAAAGT [GTGCAC_site9490]	8.92
CTCTAATTAATATTTGTACACACATATTTAACCTAC [CACACA_site9043]	6.78
TCAAATTACGTAAGAACATGCGATATAAGAAATACG [TGCATGCA_site691]	6.96
TAACTTTATTTTCCTGTACACACATTTGACATATTA [CACACA_site9116]	7.01
AGCAGACACCAACACACACACATATATATATATATA [CACACA_site337]	9.45
TTTATACAAAAGAACAGTACAATAAAGGATTTATGA [XGTACX_site811]	6.24
TTTTTTTTTATATATACACACAATAAATAAATATAA [CACACA_site2954]	6.5
TACATAAATACATACATACACACATATATATATATA [CACACA_site2105]	9.29
CTTTTTTATTTTTCAACACACATAATAAATTTCTAT [CACACA_site1037]	6.68
GGTTAAAAAAAGCATACACACTATCCTCTTTGCTCT [CACACA_site7246]	7.14
ATATTTTACAAATGCACACATAATTTTTTTTTTTTT [CACACA_site2763]	10.5
GAACCTTTAAAATACACACCCAAATCCTTTGAAATA [CACACA_site3630]	6.5
AAATTAAACAATAAATGTACATATATATTTGTATAT [XGTACX_site1092]	6.49
ATAAAAAATAAATAAGGTACAGAACATTTATACATT [XGTACX_site1783]	6.58
AACAAGGTATTAGGGTGTACTATATATATTTATATT [XGTACX_site7776]	6.44
AATAAAATATAAACATTATATATATATATATATATA [GTGCAC_negctrl_site58]	9.44
ATTTTTTCTTTTTTTTTTCCGTTTTTTTGGACATTT [CACACA_negctrl_site1174]	6.24
